# Assay results from PubChem BioAssay AID2107 (National Center for Advancing Translational Sciences (NCATS), 2009).
# Several values for one entry are separate records, joined by “and”; a condition that tells them apart may be missing. Identical values can stand only once. Out of some 240,000 compounds screened, about 20 (0.008%) were called active. The inconclusive results got no clear call from the source; some entries with a clear call stand among them for comparison. Calls follow the shape of the dose curve; as a rule, active = well fitted inhibition curve with a large enough effect; inconclusive = small, poorly fitted or top-dose-only effect, or effect the other way; inactive = flat fitted curve, though single readings scatter. A potency beside an inconclusive call is a rough fit, not a confirmed value.
# Molecular target: Alpha-galactosidase A (Homo sapiens) (UniProt P06280)
# UniProt P06280, sequence (P06280 whole entry, looked up): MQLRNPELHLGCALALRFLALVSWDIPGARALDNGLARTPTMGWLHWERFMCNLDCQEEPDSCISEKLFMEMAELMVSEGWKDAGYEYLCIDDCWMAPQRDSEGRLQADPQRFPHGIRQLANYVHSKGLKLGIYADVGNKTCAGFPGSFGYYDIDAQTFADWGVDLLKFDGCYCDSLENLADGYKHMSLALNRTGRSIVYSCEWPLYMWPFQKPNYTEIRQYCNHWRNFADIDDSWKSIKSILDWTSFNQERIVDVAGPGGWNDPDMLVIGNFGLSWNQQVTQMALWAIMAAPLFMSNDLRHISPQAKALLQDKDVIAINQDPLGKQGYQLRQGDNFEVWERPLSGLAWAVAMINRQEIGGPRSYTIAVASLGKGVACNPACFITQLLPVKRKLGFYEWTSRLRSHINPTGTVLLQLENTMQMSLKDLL
# Test: qHTS Assay for Inhibitors and Activators of Human alpha-Galactosidase From Spleen Homogenate
# Conditions: 4MU-alpha-Gal fluorescence, 40 min; series mostly up to 80 µM
# Outline: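 Human spleen homogenate (1 ug) as enzyme source, 4-methylumbelliferyl-alpha-D-galactopyranoside 1 mM final, citrate/phosphate pH 5.0 with 0.01% Tween-20. Compounds 40 min at 37C, NaOH/glycine stop; fluorescence Ex 365/Em 440, Hill-fit AC50.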
# Potency is read from the fitted curve at half-maximal effect; tags tell the direction and shape of the fitted curve.
row,Compound,Potency
1,COC(=NC1CCCC1)C(O)c1c[nH]c2ccccc12 (centres undefined),"inconclusive: 50.1 µM [inhibitor, single point]"
2,CC[C@@]1(O)C(=O)OCc2c1cc1n(c2=O)-c2cc3ccccc3nc2C1,"inconclusive: 35.5 µM [activator, partial curve] and inconclusive: 39.8 µM [activator, partial curve] and inconclusive: 6.31 µM [activator, full curve]"
3,Clc1ccc(C(c2ccc(Cl)cc2)C(Cl)Cl)cc1,inactive
4,Clc1cncc(N2CCNCC2)n1,inactive
5,C[C@@H]1Cc2c(Cl)cc(C(=O)N[C@@H](Cc3ccccc3)C(=O)O)c(O)c2C(=O)O1,"inconclusive: 35.5 µM [activator, partial curve]"
6,CCC1(OC(=O)CN)C(=O)OCc2c1cc1n(c2=O)Cc2cc3ccccc3nc2-1 (centres undefined),"inconclusive: 35.5 µM [activator, partial curve]"
7,O=C(O)c1cccc(N=Nc2c(O)[nH]c(=O)[nH]c2=O)c1,"inconclusive: 35.5 µM [inhibitor, single point]"
8,COCCNC(=O)c1c(N)n(CCC(C)C)c2nc3ccccc3nc12,"inconclusive: 39.8 µM [activator, single point]"
9,COc1ccc(N2C(=O)C(Cl)=C(N3CCN(Cc4ccccc4)CC3)C2=O)cc1,"inconclusive: 15.8 µM [inhibitor, partial curve]"
10,O=C(Cc1c[nH]c2ccccc12)Nc1nccs1,"inconclusive: 11.2 µM [inhibitor, single point]"
11,CN1CCC2(CC1)NC(=O)c1ccccc1N2,"inconclusive: 39.8 µM [activator, partial curve]"
12,S=P(NC1CCCCC1)(N1CC1)N1CC1,"inconclusive: 39.8 µM [inhibitor, single point]"
13,CN1CCc2cc3c(cc2[C@@H]1O)OCO3,"inconclusive: 15.8 µM [activator, partial curve]"
14,COc1cc2c(cc1OC)CC[N+](C)=C2,"inconclusive: 35.5 µM [activator, partial curve]"
15,CCCCn1c(N)c(C(=O)NCCN2CCOCC2)c2nc3ccccc3nc21,"inconclusive: 31.6 µM [activator, single point]"
16,CCCCCn1c(NC(=O)c2ccco2)c(C(=O)OCC)c2nc3ccccc3nc21,"inconclusive: 31.6 µM [activator, partial curve]"
17,CC1CN=C(NCc2ccccc2)S1 (centres undefined),"inconclusive: 10 µM [activator, single point]"
18,COc1ccc(-c2cc(=NCCCCCC(=O)O)c3cc(C)ccc3o2)cc1,"inconclusive: 35.5 µM [activator, partial curve]"
19,CCOc1ccc(-c2nc3ccc(-c4nc5ccc(N6CCN(C)CC6)cc5[nH]4)cc3[nH]2)cc1,"inconclusive: 44.7 µM [activator, partial curve, poor fit] and inconclusive: 15.8 µM [activator, partial curve]"
20,CCC(C)NC(=O)c1c(N)n(CCCOC)c2nc3ccccc3nc12 (centres undefined),"inconclusive: 28.2 µM [activator, single point]"
21,CCOC(=O)c1c(N)n(Cc2ccco2)c2nc3ccccc3nc12,"inconclusive: 39.8 µM [activator, partial curve]"
22,CC(=O)N1CCC2(CC1)CC(=O)c1cc(OCC(=O)N3CCN(C)CC3)ccc1O2,"inconclusive: 35.5 µM [activator, partial curve]"

row,Compound,Potency
1,c1ccc(-c2ccccc2)cc1,inactive
2,CCCN(CCC)[C@H]1CCc2c(F)ccc(O)c2C1,"inconclusive: 5.62 µM [activator, full curve, poor fit]"
3,NS(=O)(=O)c1ccc(N=Nc2c(O)[nH]c(=S)[nH]c2=O)cc1,"inconclusive: 50.1 µM [inhibitor, single point]"
4,O=C1CCc2c(ccc3ccccc23)O1,"inconclusive: 44.7 µM [activator, partial curve]"
5,COc1ccc(-c2cc(=NCCC(=O)O)c3cc(C)ccc3o2)cc1,"inconclusive: 35.5 µM [activator, partial curve]"
6,O=C(c1cccn2c(=O)c3ccccc3nc12)N1CCC2(CC1)OCCO2,"inconclusive: 17.8 µM [activator, partial curve]"
7,CC[C@@H](CO)NC(=O)[C@@H]1C=C2c3cccc4c3c(cn4C)C[C@H]2N(C)C1,"inconclusive: 39.8 µM [activator, partial curve] and inconclusive: 44.7 µM [activator, partial curve]"
8,COCCOC(=O)c1c(N)n(Cc2ccccc2)c2nc3ccccc3nc12,"inconclusive: 39.8 µM [activator, partial curve]"
9,C=CCNC(=O)c1c(N)n(Cc2ccco2)c2nc3ccccc3nc12,"inconclusive: 25.1 µM [activator, partial curve, poor fit]"
10,COC(=O)c1c(N)n(Cc2ccc(OC)cc2)c2nc3ccccc3nc12,"inconclusive: 35.5 µM [activator, single point]"
11,CC(=NCc1ccc2c(c1)OCO2)c1c(O)n(C)c(=O)n(C)c1=O,inactive
12,COCCCn1c(N)c(C(=O)OCCOC)c2nc3ccccc3nc21,"inconclusive: 35.5 µM [activator, partial curve]"
13,O=c1[nH]c(=S)n(C2CC2)c(O)c1C=Nc1ccc2c(c1)OCO2,"inconclusive: 35.5 µM [inhibitor, single point]"
14,Clc1ccc(C(c2ccc(Cl)cc2)n2cc[n+](CC(OCc3ccc(Cl)cc3Cl)c3ccc(Cl)cc3Cl)c2)cc1 (centres undefined),"inconclusive: 17.8 µM [inhibitor, partial curve]"
15,COc1ccc(CCNC(=O)c2c(N)n(CCN3CCOCC3)c3nc4ccccc4nc23)cc1OC,"inconclusive: 25.1 µM [activator, partial curve]"
16,Cc1ccc(/C=C2\C(=O)NC(=O)N(CCc3ccc(F)cc3)C2=O)o1,inactive
17,CC(=O)[C@H]1CC[C@H]2[C@@H]3CC[C@H]4C[C@H](O)CC[C@]4(C)[C@H]3C(=O)C[C@]12C,"inconclusive: 6.31 µM [inhibitor, single point]"
18,CCC(C)OC(=O)c1c(N)n(Cc2cccs2)c2nc3ccccc3nc12 (centres undefined),"inconclusive: 31.6 µM [activator, partial curve]"
19,C[C@]12C/C(=C/O)C(=O)C[C@@H]1CC[C@@H]1[C@@H]2CC[C@@]2(C)[C@H]1CC[C@]2(C)O,inactive
20,CC(C)CCn1c(N)c(C(=O)OCC2CCCO2)c2nc3ccccc3nc21 (centres undefined),"inconclusive: 15.8 µM [activator, partial curve]"
21,C[C@@H](Cc1cccc(C(F)(F)F)c1)NCCCc1ccccc1,inactive
22,Cc1cccc(-n2c(O)c(/C=N/Nc3nc4c(c(=O)n(C)c(=O)n4C)n3C)c(=O)[nH]c2=S)c1,inactive

row,Compound,Potency
1,NC1CCc2cc(O)c(O)cc2C1 (centres undefined),inactive
2,O=C(Nc1ccccc1)c1ccccc1I,inactive
3,C=CCNC(=O)c1c(N)n(CCN2CCOCC2)c2nc3ccccc3nc12,"inconclusive: 25.1 µM [activator, partial curve]"
4,CCCCOc1ccc(CCN)cc1Cl,"inconclusive: 50.1 µM [inhibitor, single point]"
5,CC(C)OCCCNC(=O)c1c(N)n(Cc2cccs2)c2nc3ccccc3nc12,"inconclusive: 31.6 µM [activator, partial curve]"
6,O=C(c1c[nH]c2ccc(S(=O)(=O)N3CCC4(CC3)OCCO4)cc2c1=O)N1CCC2(CC1)OCCO2,"inconclusive: 5.62 µM [activator, partial curve]"
7,COC(=O)COc1ccc(C[C@@H](C)NC[C@H](O)c2cccc(Cl)c2)cc1,"inconclusive: 1.78 µM [activator, partial curve, poor fit]"
8,CC(C)Cn1cc(C(=O)N2CCC3(CC2)OCCO3)c2c3ccccc3n(C)c2c1=O,"inconclusive: 1.41 µM [activator, full curve, poor fit]"
9,O=c1c2ccccc2nc(-c2ccco2)n1-c1ccccc1,inactive
10,NC(=O)c1ncn([C@@H]2O[C@H](CO)[C@@H](O)[C@H]2O)n1,"inconclusive: 50.1 µM [inhibitor, partial curve, poor fit]"
11,CN(C)C(=O)Oc1c(Cl)cc(Cl)c2ccccc12,inactive
12,Nc1ccccc1C(=O)OCCc1ccccc1,"inconclusive: 25.1 µM [activator, single point]"
13,O=c1cc(-c2ccc(O)c(O)c2)oc2cc(O)cc(O)c12,"inconclusive: 50.1 µM [inhibitor, single point]"
14,COc1cccc(Oc2c(C)oc3cc(OC(=O)N(C)C)ccc3c2=O)c1,inactive
15,CCOC(=O)c1c(N)n(Cc2ccc(OC)cc2)c2nc3ccccc3nc12,"inconclusive: 35.5 µM [activator, single point]"
16,CCOP(=O)(OCC)c1nc(-c2cccc3ccccc23)oc1N1CCOCC1,"inconclusive: 28.2 µM [activator, partial curve]"
17,N#C/C(=C\c1ccc(O)c(O)c1)C(N)=S,"inconclusive: 28.2 µM [inhibitor, single point]"
18,COCCOC(=O)c1c(N)n(Cc2ccco2)c2nc3ccccc3nc12,"inconclusive: 39.8 µM [activator, partial curve]"
19,CC(C)CNC(=O)c1c(N)n(Cc2ccco2)c2nc3ccccc3nc12,"inconclusive: 31.6 µM [activator, single point]"
20,Nc1c(C(=O)NCc2ccco2)c2nc3ccccc3nc2n1Cc1ccccc1,"inconclusive: 35.5 µM [activator, partial curve]"
